According to the RNAGym collection of RNA variant scans (doi:10.1093/nar/gkz1192):
The source gives no read counts; variants with many changes may rest on few reads.

B1: CPEB3 Ribozyme (parent)
chain: UAACAGGGGGCCACAGCAGAAGCGUUCACGUCGCAGCCCCUGUCAGAUUCUGGUGAAUCUGCGAAUUCUGCUGUAUAUCUC

Variants of: B1
Test: self-cleavage, relative activity (ratio to wild type); higher = more cleavage; in vitro, sequencing
Method in brief: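 Relative activity was defined as the cleaved/total read fraction for a variant divided by the same fraction for the unmutated ribozyme. CPEB3 self-cleaving ribozyme libraries were made by rounds of error-prone PCR, barcoded, and transcribed in vitro with T7 RNA polymerase for 5 hours at 37°C, and cleavage ran through transcription plus a 15 min DNase I step before EDTA. Illumina sequencing of template-switched reverse transcripts gave the reads, and DNA sequencing mapped the barcodes. Averages come from three batches, using variants with at least 5 reads.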

**Q.** With U43A U60A U74C as the variant, how does the self-cleavage read?
**A.** 1.06

**Q.** Which self-cleavage does the source give for U43A U67C A77U here?
**A.** 0.22

**Q.** Which self-cleavage does the source give for U43A U69A A77G here?
**A.** 0.83

**Q.** For U43C A45G U48C U66C, which self-cleavage is on record?
**A.** 0.14

**Q.** Which self-cleavage does the source give for U43C A45G U51C here?
**A.** 0.2

**Q.** Which self-cleavage does the source give for U43C A45U A64U here?
**A.** 0.46

**Q.** With U43C A45U U49A A64G U69A U80C as the variant, how does the self-cleavage read?
**A.** 0.14

**Q.** With U43C A47G A64G A65G as the variant, how does the self-cleavage read?
**A.** 0.17

**Q.** Which self-cleavage does the source give for U43C A47G G63A A64U here?
**A.** 0.4

**Q.** With U43C A47G U51C U54C as the variant, how does the self-cleavage read?
**A.** 0.2

**Q.** With U43C A47G U58A U80A as the variant, how does the self-cleavage read?
**A.** 0.08

**Q.** For U43C A56G A65G A75U, which self-cleavage is on record?
**A.** 0.08

**Q.** For U43C A56G G73C, which self-cleavage is on record?
**A.** 0.69

**Q.** With U43C A56G U76C as the variant, how does the self-cleavage read?
**A.** 0.32

**Q.** For U43C A57C A64U U76C, which self-cleavage is on record?
**A.** 0.1

**Q.** Which self-cleavage does the source give for U43C A57G U60C here?
**A.** 0.17

**Q.** With U43C A57G U67A as the variant, how does the self-cleavage read?
**A.** 0.14

**Q.** For U43C A64G G73C U74A, which self-cleavage is on record?
**A.** 0.54

**Q.** For U43C A64G U66C, which self-cleavage is on record?
**A.** 0.11

**Q.** For U43C A64G U66C A75U, which self-cleavage is on record?
**A.** 0.1

**Q.** Which self-cleavage does the source give for U43C A64G U67A here?
**A.** 0.21

**Q.** For U43C A64G U69A, which self-cleavage is on record?
**A.** 0.24

**Q.** For U43C A65G U69A U80A, which self-cleavage is on record?
**A.** 0.08

**Q.** Which self-cleavage does the source give for U43C C50U U54C here?
**A.** 0.25

**Q.** With U43C C50U U69C as the variant, how does the self-cleavage read?
**A.** 0.11

**Q.** With U43C C62G A65G as the variant, how does the self-cleavage read?
**A.** 0.08

**Q.** For U43C G46A U69A, which self-cleavage is on record?
**A.** 0.29

**Q.** Which self-cleavage does the source give for U43C G55A G63A G73U U78C here?
**A.** 0.8

**Q.** Which self-cleavage does the source give for U43C G61C U67C here?
**A.** 0.09

**Q.** Which self-cleavage does the source give for U43C U48A U78C here?
**A.** 0.14

**Q.** For U43C U48C A57G, which self-cleavage is on record?
**A.** 0.87

**Q.** Which self-cleavage does the source give for U43C U48C U54G A64G here?
**A.** 0.09

**Q.** With U43C U48C U78C as the variant, how does the self-cleavage read?
**A.** 0.18

**Q.** Which self-cleavage does the source give for U43C U49C A57G here?
**A.** 0.15

**Q.** Which self-cleavage does the source give for U43C U49C A57G U69C here?
**A.** 0.37

**Q.** With U43C U49C C81G as the variant, how does the self-cleavage read?
**A.** 0.12

**Q.** For U43C U49C U58C, which self-cleavage is on record?
**A.** 0.16

**Q.** With U43C U49C U58C U72A as the variant, how does the self-cleavage read?
**A.** 0.38

**Q.** Which self-cleavage does the source give for U43C U49C U58G here?
**A.** 0.2

**Q.** With U43C U49C U72C as the variant, how does the self-cleavage read?
**A.** 0.27

**Q.** With U43C U51A C71U as the variant, how does the self-cleavage read?
**A.** 0.61

**Q.** For U43C U51A U58A, which self-cleavage is on record?
**A.** 0.23

**Q.** With U43C U51A U58C G70A A77U as the variant, how does the self-cleavage read?
**A.** 0.09

**Q.** With U43C U51A U60A C68U U69A as the variant, how does the self-cleavage read?
**A.** 0.14

**Q.** For U43C U51C U67C, which self-cleavage is on record?
**A.** 0.35

**Q.** With U43C U51C U72C as the variant, how does the self-cleavage read?
**A.** 0.44

**Q.** With U43C U54C A64G U76C as the variant, how does the self-cleavage read?
**A.** 0.23

**Q.** Which self-cleavage does the source give for U43C U54G U60C G70A U80A here?
**A.** 0.12

**Q.** Which self-cleavage does the source give for U43C U54G U69A here?
**A.** 0.2

**Q.** For U43C U54G U80C, which self-cleavage is on record?
**A.** 0.68

**Q.** With U43C U58A C68G as the variant, how does the self-cleavage read?
**A.** 0.13

**Q.** Which self-cleavage does the source give for U43C U58C U66C here?
**A.** 0.12

**Q.** With U43C U58C U67A U78C as the variant, how does the self-cleavage read?
**A.** 0.1

**Q.** Which self-cleavage does the source give for U43C U60A A64G U67C here?
**A.** 0.13

**Q.** With U43C U60A U72C as the variant, how does the self-cleavage read?
**A.** 0.18

**Q.** With U43C U60G U78C as the variant, how does the self-cleavage read?
**A.** 0.07

**Q.** For U43C U69C C71A U78A, which self-cleavage is on record?
**A.** 0.46

**Q.** Which self-cleavage does the source give for U43C U69C U80C here?
**A.** 0.16

**Q.** Which self-cleavage does the source give for U43C U72A A77G here?
**A.** 0.77

**Q.** With U43C U72A C79U as the variant, how does the self-cleavage read?
**A.** 0.51

**Q.** Which self-cleavage does the source give for U43C U72C C79G here?
**A.** 1.12

**Q.** Which self-cleavage does the source give for U43C U72C U74A C79G here?
**A.** 0.98

**Q.** Which self-cleavage does the source give for U43G A45G U54A here?
**A.** 0.29

**Q.** For U43G A47G U69G, which self-cleavage is on record?
**A.** 0.08

**Q.** With U43G A47U U51C A65G as the variant, how does the self-cleavage read?
**A.** 0.15

**Q.** For U43G A64U U80A, which self-cleavage is on record?
**A.** 0.15

**Q.** For U43G U54C G61A, which self-cleavage is on record?
**A.** 0.23

**Q.** With C44A U60C U67A U78A as the variant, how does the self-cleavage read?
**A.** 0.07

**Q.** For C44A U60C U76C, which self-cleavage is on record?
**A.** 0.17

**Q.** Which self-cleavage does the source give for C44U A45G A47G U48C A64G here?
**A.** 0.03

**Q.** With C44U A47U U49A U60C as the variant, how does the self-cleavage read?
**A.** 0.33

**Q.** Which self-cleavage does the source give for C44U A56G U60A here?
**A.** 0.25

**Q.** With C44U A56G U69G as the variant, how does the self-cleavage read?
**A.** 0.17

**Q.** For C44U A64G U69G U76C, which self-cleavage is on record?
**A.** 0.07

**Q.** For C44U C59A G70U, which self-cleavage is on record?
**A.** 0.12

**Q.** Which self-cleavage does the source give for C44U U51A U72C here?
**A.** 0.14

**Q.** With C44U U54C U69A as the variant, how does the self-cleavage read?
**A.** 0.39

**Q.** With C44U U60C U69C as the variant, how does the self-cleavage read?
**A.** 0.49

**Q.** With C44U U66C A77U as the variant, how does the self-cleavage read?
**A.** 0.06

**Q.** Which self-cleavage does the source give for A45C A64G U72A U80C here?
**A.** 0.27

**Q.** With A45C C50A U60A A64G as the variant, how does the self-cleavage read?
**A.** 0.18

**Q.** For A45C G63U U78A, which self-cleavage is on record?
**A.** 0.24

**Q.** With A45C U48C U78C as the variant, how does the self-cleavage read?
**A.** 0.49

**Q.** With A45C U49C U54A U60C A64G as the variant, how does the self-cleavage read?
**A.** 0.19
